Assay [1] concerns the target Hsp90 (endogenous, immunoprecipitated with anti-Hsp82 antibody) (S. cerevisiae (endogenous in yeast cells)) (UniProt P02829). Put plainly: co-IP; anti-Hsp82 antibody immunoprecipitates Hsp82 from extract of mid-logarithmic yeast cells; blot probed with anti-Myc for Chl1; controls: Δchl1 strain, preimmune sera / rabbit IgG.
For assay [2], the target named is Hsp90 (full-length HSP82 in the bait vector pGBDUC1) (S. cerevisiae) (UniProt P02829). Put plainly: two-hybrid; Hsp90 as bait (pGBDUC1), Chl1 constructs as prey (pGADC1), strain PJ69-4A; HIS3 reporter, serial dilutions spotted on medium lacking uracil, leucine and histidine, scored after 5 days at 30°C.

These are yes or no findings as the source states them, for the method shown. For part of these data: Binding seen in cells or lysates may run through a third protein. Some entries that bind do so weakly or less than the wild type. For part of these data: Where a sequence is shown, tags or fusion partners need not be part of it.

B1: Chl1 with a C-terminal 13MYC tag at the chromosomal locus (protein, UniProt P22516 1-861)
chain: MDKKEYSETFYHPYKPYDIQVQLMETVYRVLSEGKKIAILESPTGTGKTLSLICATMTWLRMNKADIFTRMETNIKTNEDDSENLSDDEPDWVIDTYRKSVLQEKVDLLNDYEKHLNEINTTSCKQLKTMCDLDKEHGRYKSVDPLRKKRKGARHLDVSLEEQDFIPRPYESDSENNDTSKSTRGGRISDKDYKLSELNSQIITLLDKIDGKVSRDPNNGDRFDVTNQNPVKIYYASRTYSQLGQFTSQLRLPSFPSSFRDKVPDEKVKYLPLASKKQLCINPKVMKWKTLEAINDACADLRHSKEGCIFYQNTNEWRHCPDTLALRDMIFSEIQDIEDLVPLGKSLGICPYYASREALPIAEVVTLPYQYLLSESTRSSLQINLENSIVIIDEAHNLIETINSIYSSQISLEDLKNCHKGIVTYFNKFKSRLNPGNRVNLLKLNSLLMTLIQFIVKNFKKIGQEIDPNDMFTGSNIDTLNIHKLLRYIKVSKIAYKIDTYNQALKEEESSKNENPIKETHKKSVSSQPLLFKVSQFLYCLTNLTSEGQFFFEKNYSIKYMLLEPSKPFESILNQAKCVVLAGGTMEPMSEFLSNLLPEVPSEDITTLSCNHVIPKENLQTYITNQPELEFTFEKRMSPSLVNNHLFQFFVDLSKAVPKKGGIVAFFPSYQYLAHVIQCWKQNDRFATLNNVRKIFYEAKDGDDILSGYSDSVAEGRGSLLLAIVGGKLSEGINFQDDLCRAVVMVGLPFPNIFSGELIVKRKHLAAKIMKSGGTEEEASRATKEFMENICMKAVNQSVGRAIRHANDYANIYLLDVRYNRPNFRKKLSRWVQDSINSEHTTHQVISSTRKFFSMRSLNSR
On to B1, for which the binding entry in assay [1] is reported as “binds”.

B2: Chl1 (full-length CHL1 in the prey vector pGADC1) (protein, UniProt P22516 1-861)
chain: MDKKEYSETFYHPYKPYDIQVQLMETVYRVLSEGKKIAILESPTGTGKTLSLICATMTWLRMNKADIFTRMETNIKTNEDDSENLSDDEPDWVIDTYRKSVLQEKVDLLNDYEKHLNEINTTSCKQLKTMCDLDKEHGRYKSVDPLRKKRKGARHLDVSLEEQDFIPRPYESDSENNDTSKSTRGGRISDKDYKLSELNSQIITLLDKIDGKVSRDPNNGDRFDVTNQNPVKIYYASRTYSQLGQFTSQLRLPSFPSSFRDKVPDEKVKYLPLASKKQLCINPKVMKWKTLEAINDACADLRHSKEGCIFYQNTNEWRHCPDTLALRDMIFSEIQDIEDLVPLGKSLGICPYYASREALPIAEVVTLPYQYLLSESTRSSLQINLENSIVIIDEAHNLIETINSIYSSQISLEDLKNCHKGIVTYFNKFKSRLNPGNRVNLLKLNSLLMTLIQFIVKNFKKIGQEIDPNDMFTGSNIDTLNIHKLLRYIKVSKIAYKIDTYNQALKEEESSKNENPIKETHKKSVSSQPLLFKVSQFLYCLTNLTSEGQFFFEKNYSIKYMLLEPSKPFESILNQAKCVVLAGGTMEPMSEFLSNLLPEVPSEDITTLSCNHVIPKENLQTYITNQPELEFTFEKRMSPSLVNNHLFQFFVDLSKAVPKKGGIVAFFPSYQYLAHVIQCWKQNDRFATLNNVRKIFYEAKDGDDILSGYSDSVAEGRGSLLLAIVGGKLSEGINFQDDLCRAVVMVGLPFPNIFSGELIVKRKHLAAKIMKSGGTEEEASRATKEFMENICMKAVNQSVGRAIRHANDYANIYLLDVRYNRPNFRKKLSRWVQDSINSEHTTHQVISSTRKFFSMRSLNSR
Consider B2, for which the binding entry in assay [2] is reported as “binds”.

B3: chl1-C253 (domains III and IV of Chl1) (domain or fragment, UniProt P22516 609-861)
chain: SCNHVIPKENLQTYITNQPELEFTFEKRMSPSLVNNHLFQFFVDLSKAVPKKGGIVAFFPSYQYLAHVIQCWKQNDRFATLNNVRKIFYEAKDGDDILSGYSDSVAEGRGSLLLAIVGGKLSEGINFQDDLCRAVVMVGLPFPNIFSGELIVKRKHLAAKIMKSGGTEEEASRATKEFMENICMKAVNQSVGRAIRHANDYANIYLLDVRYNRPNFRKKLSRWVQDSINSEHTTHQVISSTRKFFSMRSLNSR
On to B3, for which, in assay [2], the binding result is “binds weakly”.

B4: chl1-C648 (648 amino acids of Chl1; domains II, III and IV) (domain or fragment, UniProt P22516 214-861)
chain: SRDPNNGDRFDVTNQNPVKIYYASRTYSQLGQFTSQLRLPSFPSSFRDKVPDEKVKYLPLASKKQLCINPKVMKWKTLEAINDACADLRHSKEGCIFYQNTNEWRHCPDTLALRDMIFSEIQDIEDLVPLGKSLGICPYYASREALPIAEVVTLPYQYLLSESTRSSLQINLENSIVIIDEAHNLIETINSIYSSQISLEDLKNCHKGIVTYFNKFKSRLNPGNRVNLLKLNSLLMTLIQFIVKNFKKIGQEIDPNDMFTGSNIDTLNIHKLLRYIKVSKIAYKIDTYNQALKEEESSKNENPIKETHKKSVSSQPLLFKVSQFLYCLTNLTSEGQFFFEKNYSIKYMLLEPSKPFESILNQAKCVVLAGGTMEPMSEFLSNLLPEVPSEDITTLSCNHVIPKENLQTYITNQPELEFTFEKRMSPSLVNNHLFQFFVDLSKAVPKKGGIVAFFPSYQYLAHVIQCWKQNDRFATLNNVRKIFYEAKDGDDILSGYSDSVAEGRGSLLLAIVGGKLSEGINFQDDLCRAVVMVGLPFPNIFSGELIVKRKHLAAKIMKSGGTEEEASRATKEFMENICMKAVNQSVGRAIRHANDYANIYLLDVRYNRPNFRKKLSRWVQDSINSEHTTHQVISSTRKFFSMRSLNSR
Consider B4, for which, in assay [2], the binding entry was “binds”.

B5: chl1-C170 (C-terminal domain of Chl1; domain IV) (domain or fragment, UniProt P22516 692-861)
chain: VRKIFYEAKDGDDILSGYSDSVAEGRGSLLLAIVGGKLSEGINFQDDLCRAVVMVGLPFPNIFSGELIVKRKHLAAKIMKSGGTEEEASRATKEFMENICMKAVNQSVGRAIRHANDYANIYLLDVRYNRPNFRKKLSRWVQDSINSEHTTHQVISSTRKFFSMRSLNSR
For B5, the binding entry in assay [2] was “no binding”.

B6: chl1-N466 (N-terminal 466 amino acids of Chl1; domains I and II) (domain or fragment, UniProt P22516 1-466)
chain: MDKKEYSETFYHPYKPYDIQVQLMETVYRVLSEGKKIAILESPTGTGKTLSLICATMTWLRMNKADIFTRMETNIKTNEDDSENLSDDEPDWVIDTYRKSVLQEKVDLLNDYEKHLNEINTTSCKQLKTMCDLDKEHGRYKSVDPLRKKRKGARHLDVSLEEQDFIPRPYESDSENNDTSKSTRGGRISDKDYKLSELNSQIITLLDKIDGKVSRDPNNGDRFDVTNQNPVKIYYASRTYSQLGQFTSQLRLPSFPSSFRDKVPDEKVKYLPLASKKQLCINPKVMKWKTLEAINDACADLRHSKEGCIFYQNTNEWRHCPDTLALRDMIFSEIQDIEDLVPLGKSLGICPYYASREALPIAEVVTLPYQYLLSESTRSSLQINLENSIVIIDEAHNLIETINSIYSSQISLEDLKNCHKGIVTYFNKFKSRLNPGNRVNLLKLNSLLMTLIQFIVKNFKKIGQEI
For the molecule B6, the binding result in assay [2] was “no binding”.

For the origin of these results see publication PMC5990887.
